Laboratory results: patent US20260263521A1, “ANTI-CD200R1 ANTIBODY AND USE THEREOF” (AIMED BIO INC., priority 2023, published 2026)

Experiments:
monkey CD200R1 = assay: ELISA binding to monkey CD200R1; conditions: Example 14
Excerpt: Therefore, the LC D51 and LC D92 sequences were not substituted during the optimization process. However, since LC N30 and LC N31 can play an important role in the specific binding of antibodies as paratopes, the sequences were substituted and optimized. Through rational design, LC S52 and LC S94 were substituted with K and R, respectively, to derive P001009v1, and LC S52 and LC D93 were substituted with K and R, respectively, to derive P001009v2. Further, P001009v3, in which LC N30 was substituted with S, and P001009v4, in which LC N31 was substituted with K, were derived and produced, and the binding ability to human, mouse, and monkey CD200R1 was analyzed by ELISA (FIG. 15). […] Both […] and variants thereof had very weak binding ability to mouse CD200R1 at concentrations up to 300 nM.

human CD200R1 [1] = target: T1, human CD200R1 (Homo sapiens, UniProt Q8TD46); assay: SPR binding kinetics, human CD200R1; conditions: hCD200R1-his captured on anti-His CM5 chip, 1:1 Langmuir fit
T1 sequence (Q8TD46 25-348): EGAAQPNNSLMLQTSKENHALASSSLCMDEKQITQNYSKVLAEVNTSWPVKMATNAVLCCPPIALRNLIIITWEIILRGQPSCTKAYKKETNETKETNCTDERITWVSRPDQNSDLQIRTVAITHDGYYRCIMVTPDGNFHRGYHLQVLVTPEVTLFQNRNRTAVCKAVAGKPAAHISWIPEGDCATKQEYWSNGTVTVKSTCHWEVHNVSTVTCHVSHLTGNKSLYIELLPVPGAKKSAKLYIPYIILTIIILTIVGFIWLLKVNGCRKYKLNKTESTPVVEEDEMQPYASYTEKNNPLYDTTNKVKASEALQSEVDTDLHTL
Procedure: (§1) The CD200R1-specific binding ability of the antibodies (P001009 wt, P001009 v1, P001009 v2, P001009 v3, P001009 v4) selected in Example 14 was analyzed using surface plasma resonance (SPR). For the experiment, 30 μg/mL of an anti-histidine antibody was conjugated to a CM5 biacore chip via an amine bond while allowing to flow at 10 μl/min (10,000 RU). Then, 0.25 μg/mL of human or cynomolgus CD200R1 with dual His-tags was captured onto the completed chip for 60 seconds, and the binding ability of each antibody was analyzed. All experiments were performed by association of antibodies for 120 seconds and dissociation of antibodies for 600 seconds. The resulting graphs were fitted using a 1:1 Langmuir binding kinetic model (FIG. 16), and the kinetics of each antibody were calculated.

human CD200R1 [2] = target: T1, human CD200R1; assay: ELISA binding to human CD200R1; conditions: Example 14
Procedure: 96-well plates were coated with human CD200R1 (R&D systems, 3414-CD) and mouse CD200R1 protein (R&D systems, 2554-CD) at a concentration of 2 μg/mL at 4° C. for 16 hours and then were blocked with 3% skim milk. The result was treated with the antibodies at concentrations of 300 nM, 60 nM, 12 nM, 2.4 nM, 0.48 nM, 0.096 nM, and 0.0192 nM, and reacted at room temperature for 2 hours.
The result was washed with PBST and distilled water, the samples were bound with a goat-derived HRP-conjugated anti-human antibody (Invitrogen, 31482, Goat anti-Human IgG F(ab′)2 Secondary Antibody, HRP) for 1 hour at room temperature, and then washed again with PBST and distilled water. Color was developed with a TMB substrate solution (Thermo Scientific, 34029, 1-Step™ TMB-ELISA Ultra Substrate Solution). The color reaction was stopped with stop solution (Invitrogen, SS04, ELISA Stop Solution). The absorbance was measured at an optical density of 450 nm.

cynomolgus CD200R1 = assay: SPR binding kinetics, cynomolgus CD200R1; conditions: cynomolgus CD200R1-his captured on anti-His CM5 chip, 1:1 Langmuir fit
Procedure: as §1

B1: P001009v3: P001009 variant, LC N30 substituted with S; VH SEQ ID NO: 79 (antibody, V domains shown)
VH: EVQLLESGGGLVQPGGSLRLSCAASGFTFSSYDMSWVRQAPGKGLEWVSWISHGGGSIYYADSVKGRFTISRDNSKNTLYLQMNSLRAEDTAVYYCARDAPAYSAPLFDYWGQGTLVTVSS
VL: QSVLTQPPSASGTPGQRVTISCSGSSSNIGSNAVNWYQQLPGTAPKLLIYYDSNRPSGVPDRFSGSKSGTSASLAISGLRSEDEADYYCAAWDDSLSGYVFGGGTKLTVL
With B1 the “binding ability to monkey CD200R1 compared to parent” value (monkey CD200R1) was “improved”, the Ka (human CD200R1 [1]) was 4.16e+06 M⁻¹ s⁻¹ and the “binding ability to human CD200R1 compared to parent” value (human CD200R1 [2]) was “reduced”. For the same molecule, the Ka (cynomolgus CD200R1) was 6.14e+09 M⁻¹ s⁻¹.
